# Several values for one entry are separate records, joined by “and”; a condition that tells them apart may be missing. Identical values can stand only once. In all, about 110,000 compounds went through this assay and about 230 (0.21%) showed an effect of 50% or more. The list shows a part of the results.
# Biological target: DPAP1 (Plasmodium falciparum, UniProt Q8IIJ9)
# Assay: primary screen, percent inhibition; read by cleavage of a fluorogenic dipeptide substrate; higher = more effect of the substance
# Set-up: species or system P. falciparum D10 trophozoite lysates; single well
# 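Note: 30 min substrate incubation versus DMSO and 10 µM JCP410 controls.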
# Sequence of DPAP1 (Q8IIJ9 whole entry, looked up): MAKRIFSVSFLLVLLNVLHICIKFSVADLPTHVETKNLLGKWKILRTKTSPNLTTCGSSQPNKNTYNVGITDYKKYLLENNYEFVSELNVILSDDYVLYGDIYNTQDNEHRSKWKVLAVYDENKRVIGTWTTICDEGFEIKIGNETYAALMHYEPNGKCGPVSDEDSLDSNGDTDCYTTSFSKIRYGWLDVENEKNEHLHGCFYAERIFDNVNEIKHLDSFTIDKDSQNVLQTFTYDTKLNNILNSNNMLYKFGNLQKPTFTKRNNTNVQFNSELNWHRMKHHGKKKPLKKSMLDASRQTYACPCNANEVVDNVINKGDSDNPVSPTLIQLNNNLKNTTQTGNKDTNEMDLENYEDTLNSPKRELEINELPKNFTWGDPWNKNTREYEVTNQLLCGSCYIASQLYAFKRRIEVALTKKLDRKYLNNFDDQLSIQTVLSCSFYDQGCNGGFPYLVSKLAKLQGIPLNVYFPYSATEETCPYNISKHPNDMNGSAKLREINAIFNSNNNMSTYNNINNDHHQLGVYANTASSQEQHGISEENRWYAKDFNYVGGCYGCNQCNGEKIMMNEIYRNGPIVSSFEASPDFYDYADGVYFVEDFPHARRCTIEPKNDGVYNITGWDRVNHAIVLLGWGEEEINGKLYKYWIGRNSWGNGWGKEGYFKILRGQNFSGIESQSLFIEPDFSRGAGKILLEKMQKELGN
row,Structure (SMILES),% Inhibition @ 10 uM
1,COc1c(C)cccc1C(=O)Nc1ccc(CN2CCOCC2)cc1,-8.41%
2,CCN(CC)S(=O)(=O)c1ccc(-c2cn3cc(Cl)ccc3n2)cc1,-4.28%
3,O=c1c2ccccc2n2c(-c3cccs3)nnc2n1CCc1ccccc1,-5.6%
4,CC(=O)OC1CSc2nc3ccccc3n2C1 (stereo not shown),5.16%
5,NC(=O)c1ccccc1-c1ccccc1C(=O)O,-1.97%
6,CCCCC[C@H](NC(=O)c1ccccc1)C(=O)NCC#N,-6.98%
7,Cc1nn(C(C)C(=O)N2CCc3ccccc3C2)c(=O)c2c1sc1ccccc12 (stereo not shown),3.3%
8,CCCN(CCC)C(=O)Cn1ncn2c(cc3ccccc32)c1=O,-7.22%
9,CN(C)CCC/N=c1\cc(-c2ccccc2)oc2ccc(Cl)cc12,2.24%
10,Cc1cc(N2CCC(C(=O)Nc3cccnc3Cl)CC2)n2nc(C)c(-c3ccc(Cl)cc3)c2n1,-1.89%
11,COC(=O)c1ccc(OCC2c3cc(OC)c(OC)cc3CCN2C(=O)c2c(F)cccc2F)cc1 (stereo not shown),-0.812%
12,O=C1c2ccccc2C(=O)N1OCCSc1nc2ccccc2s1,-1.33%
13,CCOCCCNCc1ccc(OCCC(C)C)c(OC)c1,3.66%
14,CCOC(=O)N1CCN(C(=O)C2CCN(S(=O)(=O)c3ccccc3)CC2)CC1,0.147%
15,CCOC(=O)c1c(C)[nH]c(C)c1S(=O)(=O)NCC(=O)N1CCCN(Cc2ccc(F)cc2)C1,-1.95%
16,CCOc1ccc(NC(=O)Nc2ccc(Cl)c(Cl)c2)cc1,4.6%
17,Cc1ccc(NC(=O)c2ccc3c(c2)c(C)c(C)n3Cc2ccccc2)cc1,3.47%
18,CC(C)C(=O)N1c2ccccc2N=C2CC(C)(C)CC(O)=C2C1c1cccnc1 (stereo not shown),-2.46%
19,Fc1ccc(CN2CCN(c3ccc(F)cc3)CC2)cc1,1.63%
20,Cc1nnc2sc(-c3cnccn3)nn12,-2.84%
21,O=C(C1CCCCC1)N1CC(=O)N(CCc2ccccc2)C(O)C1 (stereo not shown),-2.5%
22,CCOC(=O)C1=C(c2ccccc2)N=C(S)NC1CC (stereo not shown),1.13%
23,CCCCN(CCCC)Cc1c(C(=O)O)[nH]c(=O)[nH]c1=O,0.565%
24,Cc1ccccc1Cn1c(C(=O)O)c(CNC2CCN(Cc3ccccc3)CC2)c2ccccc21,3.54%
25,O=C(O)C1CCCCC1C(=O)NC1CCCCC1 (stereo not shown),1.62%
26,O=C(CCNC(=O)c1ccc(Br)o1)NCc1ccccn1,-0.502%

row,Structure (SMILES),% Inhibition @ 10 uM
1,CC1CCN(C(=O)COc2ccc3ccccc3c2Br)CC1,-4.68%
2,Clc1ccc(N2CCN(Cc3ccoc3)CC2)cc1,-4.35%
3,COc1ccc(CC(=O)N(C)c2ccccc2)cc1,-1.62%
4,CCC(C)N(CCNC(=O)c1noc2c1COc1ccc(C)cc1-2)Cc1ccco1 (stereo not shown),-4.07%
5,O=C(Cc1ccc(Cl)c(Cl)c1)N1N=C(C(F)F)CC1(O)C(F)F (stereo not shown),-1.88%
6,O=C(O)Cc1csc2ccccc12,-3.53%
7,COc1ccccc1/C=C/c1ccccc1OC,2.03%
8,CN(CC(=O)Nc1ccc(C(F)(F)F)cc1)S(=O)(=O)c1ccc(Cl)cc1,5.15%
9,CCOC(=O)c1cnc(-c2ccccc2)nc1Nc1ccccc1,-2.36%
10,COc1ccc(C(C)(CCC(=O)Nc2ncc(CN3CCOCC3)s2)c2ccc(OC)cc2)cc1,-0.403%
11,O=C(CCC(=O)n1ncc2ccc(Cl)cc21)NC1CCCC1,0.596%
12,Cc1cc(C)n2nc(CNS(=O)(=O)c3ccc4c(c3)CCCC4)nc2n1,2.84%
13,CC(=O)Nc1ccccc1NC(=O)Nc1cccc(Cl)c1,-4.59%
14,Cc1ccc(S(=O)(=O)NCc2nc(-c3ccc(Cl)cc3)no2)cc1,-6.96%
15,Nc1ccc(-c2ccc(N)c(C(=O)O)c2)cc1C(=O)O,-1.74%
16,CCOC(=O)N1CCC(NC2CC2)CC1,-7.02%
17,Cc1cccc2c(N)c3c(nc12)N(C)CC3,-1.63%
18,COc1ccc(CC(=O)N2CCN(C)CC2)cc1,-1.93%
19,O=C(NCCCN1CCOCC1)c1ccncc1,-6.69%
20,CCOC(=O)N1CCc2c(sc3c2C(=O)NC(c2ccc(-c4cccc(C(F)(F)F)c4)o2)N3)C1 (stereo not shown),0.778%
21,CC(C)(C)c1cc(Cc2ccccc2)no1,4.61%
22,COc1ccc(Cl)cc1NC(=O)c1ccc(C)cc1,5.43%
23,CCN(CC)c1nn2nnnc2c2ccccc12,-3%
24,CCCCOc1ccc(S(=O)(=O)N2CCOCC2)cc1,-2.56%
25,CCOc1ccc(CN2CCN(Cc3ccco3)CC2)cc1,-1.6%
26,Cc1ccc(N2C(=O)c3ccc(C(=O)NCC4CCCO4)cc3C2=O)cc1 (stereo not shown),2.18% and -1.61%
